According to patent publication US20250027930A1, “SMALL MOLECULES FOR REPROGRAMING ANTI-TUMOR IMMUNITY OF T CELLS” (THE SCRIPPS RESEARCH INSTITUTE, priority 2021, published 2025):

Key:
HA-28z CAR T cells = assay: HA-28z (GD2) CAR T cell expansion with sugars; settings: 50 mM; CAR T cells day 14
Protocol: Human PBMCs were activated with Human T-Expander CD3/cd38 Dynabeads beads at 1:1 ratio for 24 h in T cells medium and then transduced with retroviral vector encoding the disialoganglioside (GD2)-specific14g2a scFv, CD3ζ and CD28 signaling domains (HA-28z). On day 5 after transfection, CD8^+ CAR T cells or CD4^+ CAR T cells were sorted for in vitro expansion with 150 IU/mL TL-2 in the presence or absence of sugars (FIG. 7A).
T cell exhaustion has been increasingly incriminated to cause Chimeric antigen receptor (CAR)-T cell dysfunction, which has raised the prospect that maintaining CAR T cells stemness could improve in vivo response. For example, CAR T cells incorporating the disialoganglioside (GD2)-specific 14g2a scFv, CD3ζ and CD28 signaling domains (GD2-28z) develop profound features of exhaustion including reduced expansion in culture, increased expression of inhibitory receptors during in vitro culture before adoptive transfer, as a result of receptor clustering and tonic signaling caused by scFv self-interactions via an antigen-independent way (see, e.g., Weber et al., Science 372(6537):eaba1786, 2021; and Long et al., Nat. Med. 21(6):581-90, 2015). Here, we constructed HA-28z CAR T cells (FIG. 7A) and cultured the sorted CD8^+ or CD4^+ CAR T cells with sugars (N-acetylglucosamine, GlcNAc 60 mM or N-Acetylneuraminic acid, Neu5Ac 50 mM) for 14 days.

B16-OVA tumors [1] = assay: Adoptive transfer of expanded OVA-specific TILs, tumor control; settings: TILs from B16-OVA tumors expanded in the presence of the sugar; tumor size day 16
Protocol: To test the effect of sugars during in vitro expansion of tumor-infiltrating T cells, tumors were mechanically dissociated into single cell suspension and TSA-reactive CD8+ tumor-infiltrating T cells were isolated from MC38 or B16-OVA tumors by FucoID (FIG. 6A) or H-2Kb-[…] tetramer staining, respectively, and then expanded using a rapid expansion protocol in the presence of allogenic (BALB/cByJ) splenocytes as feeder cells (feeder cell: T cell=100:1), together with 0.5 ng/mL anti-CD3 and 1500 IU/mL IL-2. Sugars were added at the beginning or during the expansion of the TILs, and kept till the end of expansion. On expansion day 9, phenotypes of the expanded T cells were assessed, and the cells were used for adoptive transfer (FIG. 6E). For adoptive transfer, 0.5 million cells (B16-OVA or MC38) were inoculated subcutaneously on each mouse on day 0, Listeria monocytogenes-OVA (LM-OVA) infection 0.5 million CFU/mice on day 1, and blood analysis was recorded on day 7.

B16-OVA tumors [2] = assay: Adoptive transfer of inhibitor 9-expanded OT-I cells into B16-OVA tumor mice; format: in vivo, mouse; settings: OT-I cells in vitro expanded with the inhibitor; anti-PD-1 day 14 and day 21
Protocol: In further studies, 6-7-week-old female C57BL/6J mice were subcutaneously implanted with 6×10^5 B16-OVA cells (day −6). Five days (day −1) after the inoculation of B16-OVA cells, the mice were irradiated with a dose of 5 Gy for lymphodepletion. […] Anti-PD-1 antibody infusions were performed on day 14 and day 21 after the adoptive transfer of OT-I cells with a dose of 100 ug/mouse by IV injection.

OT-I splenocytes = assay: OT-I splenocyte culture with KRAS (G12C) inhibitors 9/12 and analogues; format: cell-based, mouse; settings: added D0 at 5 uM or D3 at 5 uM or 10 uM, kept till day 7
Protocol: We performed additional studies to examine the observed activities of KRAS (G12C) inhibitors in modulating T cell properties. First, OT-I splenocytes were activated with OVA257-264 peptide (500 nM) for 3 days in the presence of 60 IU/mL IL-2 and cultured for another 7 days. Inhibitor 9 (i9) or inhibitor 12 (i12) was added on Day0 (D0) upon activation at 5 uM and the concentration was kept till day 7 or added on Day3 (D3) after activation at 5 uM or 10 uM and the concentration was kept till day 7 for analysis.
Other than inhibitors 9 and 12, we also tested activities of two analogues of these KRAS (G12C) inhibitors. The analogues, Z7 and Z6, are derived from Inhibitor 9 and Inhibitor 12, respectively. They have an alkynyl group for click reaction which is used for ABPP analysis to find the targets of the inhibitors (FIG. 18A). In the studies, OT-I splenocytes were activated with OVA257-264 peptide (500 nM) for 3 days in the presence of 60 IU/mL IL-2 and cultured for another 7 days. 5 uM […], i9, z6 or z7 were added on Day0 (DO) upon activation.
As noted above, Inhibitor 9 and Inhibitor 12 have a cysteine-reactive group ([…] and acrylamide) that allows covalent binding of i9 and i12 to a cysteine residue in proteins. We further tested two analogue compounds, ZT-1 and ZT-2, that are not capable of forming the covalent binding. […] Cell number was recorded on day 5 and day 7. […]

Compound: CC(=O)N[C@H]1[C@H]([C@H](O)[C@H](O)CO)OC(O)(C(=O)O)C[C@@H]1O (stereo partly drawn) [Neu5Ac, N-acetylneuraminic acid]
- inhibitory receptors (e.g. PD-1, Tim-3) expression (HA-28z CAR T cells): decrease
- progenitor exhausted T cells (Tim-3-TCF-1^+) (HA-28z CAR T cells): increase

Compound: OC[C@H]1O[C@@](CO)(O[C@H]2O[C@H](CO)[C@@H](O)[C@H](O)[C@H]2O)[C@@H](O)[C@@H]1O [Sucrose, sucrose]
- tumor control by adoptively transferred OVA-specific TILs (B16-OVA tumors [1]): higher activities in tumor control

Compound: K-Ras(G12C) Inhibitor 9
- tumor control and response to PD-1 blockade (B16-OVA tumors [2]): improved tumor control and enhanced response to PD-1 blockade
- ratio of progenitor exhausted T cells (Tim-3-TCF-1l) (OT-I splenocytes): significantly increased

Compound: C=CC(=O)N1CCN(C(=O)CNc2cc(I)c(Cl)cc2O)CC1 [K-Ras(G12C) inhibitor 12]
- ratio of progenitor exhausted T cells (Tim-3-TCF-1l) (OT-I splenocytes): significantly increased
